Experimental data: the supplement of paper PMC7826260
The other results are listed elsewhere or left out. One pool of 16,384 single-stranded DNAs met each Rep nickase domain in vitro at 3 µM enzyme and 37 °C for 1 h; the strands have 90 letters, of which the middle is given. The score is log2 (uncut reads / reads without enzyme); uncut sequences lie near 0, cut ones below; no hit call is given. Counts are relative to all reads; uncut strands gain when others are lost, and binding without cutting may add a little.

These sequences were tested on T1, Rep nickase domain of tomato golden mosaic virus (assay: uncleaved DNA left, log2 of reads against the no-enzyme library (log2 ratio); higher = less cleavage (more negative = more Rep cleavage of the k-mer); sequences stand for … in CTCGTCCG…ACCGGAGA).
T1 sequence (residues 1-124 of Rep, tag left off): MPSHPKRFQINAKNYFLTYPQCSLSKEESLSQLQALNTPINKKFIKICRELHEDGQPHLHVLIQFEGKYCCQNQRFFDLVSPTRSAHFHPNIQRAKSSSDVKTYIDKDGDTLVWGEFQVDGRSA
Description: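 A pool of 90-nt single-stranded DNAs with seven random bases just before the constant AC of the nick site (name = the seven bases) was cut by 3 µM recombinant His6-SUMO-tagged Rep nickase domain (300 nM DNA, 50 mM HEPES pH 8.0, 50 mM NaCl, 1 mM MnCl2, 1 h, 37 °C, three replicates). Uncut DNA was amplified and sequenced.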

Row | Sequence | uncleaved DNA left (log2)
1 | CAATCTA | -0.309
2 | TACTAGC | 0.0123
3 | GGCCCGT | -0.00516
4 | GTGGCAA | -0.014
5 | GTTTCTG | -0.0185
6 | CCATGGG | 0.0132
7 | ACGACAC | 0.0224
8 | TGGGTGC | -0.00233
9 | CGGCACA | -0.0227
10 | CCATCGT | -0.0624
11 | ACTAAAA | 0.0708
12 | GATGTGA | 0.00434
13 | ATGCGAA | -0.000983
14 | AAAAGAT | 0.108
15 | CTGCTCC | -0.0487
16 | ATTACAT | -0.0397
17 | CATAGCT | -0.028
18 | GCTTTAT | 0.0948
19 | ACCCCCA | -0.0815
20 | TCTCGAA | 0.000207

Row | Sequence | uncleaved DNA left (log2)
21 | ACATTAC | 0.0402
22 | GTGGTCG | 0.122
23 | CCTGCCA | 0.00447
24 | AGGTCAT | 0.0398
25 | GTGTAAG | 0.0263
26 | ACTAGGG | -0.0733
27 | TGCGGCG | -0.0155
28 | AATTACT | -1.63
29 | TTGCATT | -0.208
30 | AGAGTGT | 0.221
31 | CAGCATC | 0.000794
32 | CCAACGT | -0.108
33 | CAATTCC | -0.458
34 | ATCTCCT | -0.11
35 | CCTTAAG | 0.0939
36 | TTCTTCT | -0.0517
37 | GGAATCT | 0.0929
38 | GCTTGGG | -0.0206
39 | CGGCGAC | -0.16
40 | TAAGAAC | 0.146
